Test results taken from publication PMC8665361.
Results are given in words; binding and its absence hold for the method and conditions named. Binding seen in cells or lysates may run through a third protein. Some binding calls cover weakened binding; strength is not graded here. For some assays here: Sequences can lack the tags named with a protein.

The chains behind the UniProt entries cited, without tags or fusion partners.
UniProt Q9WVH3: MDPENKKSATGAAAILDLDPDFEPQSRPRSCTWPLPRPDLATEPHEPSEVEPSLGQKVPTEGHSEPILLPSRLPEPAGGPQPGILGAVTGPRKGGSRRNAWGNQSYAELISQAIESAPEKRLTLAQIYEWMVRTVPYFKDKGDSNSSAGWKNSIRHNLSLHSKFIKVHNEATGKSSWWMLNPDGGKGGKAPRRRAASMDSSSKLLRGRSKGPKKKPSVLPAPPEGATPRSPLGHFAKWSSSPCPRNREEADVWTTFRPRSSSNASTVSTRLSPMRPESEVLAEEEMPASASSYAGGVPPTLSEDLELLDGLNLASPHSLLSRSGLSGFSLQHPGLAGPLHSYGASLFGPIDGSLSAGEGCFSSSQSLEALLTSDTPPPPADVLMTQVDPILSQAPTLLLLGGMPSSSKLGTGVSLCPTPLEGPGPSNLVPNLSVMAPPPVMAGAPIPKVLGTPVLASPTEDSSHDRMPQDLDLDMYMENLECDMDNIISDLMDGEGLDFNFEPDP
UniProt P98177: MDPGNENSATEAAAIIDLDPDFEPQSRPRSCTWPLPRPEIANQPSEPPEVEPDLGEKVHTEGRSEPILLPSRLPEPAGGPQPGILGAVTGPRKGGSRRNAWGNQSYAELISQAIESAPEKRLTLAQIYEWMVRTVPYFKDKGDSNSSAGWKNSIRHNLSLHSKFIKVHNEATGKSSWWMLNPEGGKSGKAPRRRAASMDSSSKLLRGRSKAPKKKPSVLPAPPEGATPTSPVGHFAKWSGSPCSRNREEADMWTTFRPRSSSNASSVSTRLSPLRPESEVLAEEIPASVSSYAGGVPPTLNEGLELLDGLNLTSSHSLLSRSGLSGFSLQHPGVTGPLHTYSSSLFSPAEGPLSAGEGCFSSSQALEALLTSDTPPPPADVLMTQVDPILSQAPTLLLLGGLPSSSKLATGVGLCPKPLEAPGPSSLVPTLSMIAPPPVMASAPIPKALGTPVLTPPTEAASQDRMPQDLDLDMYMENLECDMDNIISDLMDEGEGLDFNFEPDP

Assays:
[1] = molecular target: endogenous FOXO4 (mouse MN9D cells and whole mouse brain) (mouse (endogenous in MN9D cells and mouse brain)) (UniProt Q9WVH3); assay: co-IP; endogenous proteins, mouse neuroblastoma MN9D cell lysate; IP with anti-FOXO4 IgG, blot with indicated antibodies
[2] = molecular target: endogenous FOXO4 (mouse MN9D cells and whole mouse brain) (mouse (endogenous in MN9D cells and mouse brain)) (UniProt Q9WVH3); assay: co-IP; endogenous proteins, whole mouse brain lysate (50 mM Tris pH 7.4, 150 mM NaCl, 1% Triton X-100, 0.5% sodium deoxycholate, 0.1% SDS); IP with anti-FOXO4 IgG
[3] = molecular target: endogenous FOXO4 (HEK293 cells) (human (endogenous in HEK293)) (UniProt P98177); assay: co-IP; HEK293 cells transfected with FLAG-FBXO7 wild type or a deletion mutant; IP with anti-FOXO4 antibody (endogenous FOXO4); Fig. S1B
[4] = molecular target: T1, endogenous FBXO7 (HEK293 cells) (human (endogenous in HEK293)) (UniProt Q9Y3I1); assay: co-IP; HEK293 cells transfected 24 h with FLAG- or HA-tagged catalytically inactive caspases; endogenous FBXO7; text: IP with anti-FLAG or anti-HA and blot with anti-FBXO7; legend: IP with anti-FBXO7
T1 sequence: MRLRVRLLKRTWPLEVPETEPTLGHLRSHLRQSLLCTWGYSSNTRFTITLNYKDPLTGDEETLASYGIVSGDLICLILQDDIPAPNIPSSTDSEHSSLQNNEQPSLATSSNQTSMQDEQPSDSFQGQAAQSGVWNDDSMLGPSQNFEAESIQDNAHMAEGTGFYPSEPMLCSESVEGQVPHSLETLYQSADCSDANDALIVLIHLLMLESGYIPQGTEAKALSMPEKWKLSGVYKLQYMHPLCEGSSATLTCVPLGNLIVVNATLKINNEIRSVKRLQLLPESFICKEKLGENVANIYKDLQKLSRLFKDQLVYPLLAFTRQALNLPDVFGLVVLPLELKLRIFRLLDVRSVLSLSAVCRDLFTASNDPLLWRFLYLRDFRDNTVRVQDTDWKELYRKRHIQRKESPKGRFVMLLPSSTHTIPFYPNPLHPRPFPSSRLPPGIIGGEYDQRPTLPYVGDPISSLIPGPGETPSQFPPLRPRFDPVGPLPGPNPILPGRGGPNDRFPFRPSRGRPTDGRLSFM

B1: endogenous FBXO7 (mouse MN9D cells and whole mouse brain) (protein, UniProt Q3U7U3 1-523)
chain: MKLRVRLQKRTQPLEVPESEPTLGQLRAHLSQVLLPTLGFSSDTRFAITLNNKDALTGDEETLASYGIVSGDLICLVLEDDMPAPNLPSSTDTEHSSLQDNDQPSLAATPSQTNIPDEQGTDSSQGQATPFDAWTDDSMEGPSQNVEAESIQDAMSMEEVSGFHPLEPMLCNETEDGQVPHSLETLYQSAGCSNISDALIVLVHLLMLESGYIPQGTETKAVTMPEKWKSSGVYKLQYTHPLCEGGFAVLTCVPLGNLIIINATIKVNGGIKNVKSVQLQPGSYVAAGVEPGESAAKVYKDLKKLSRLFKDQLVYPLLAFTRQVLNLPDVFGLVVLPLELKLRIFRLLDVHSVLALSAVCHDLLIASNDPLLWRCLYLRDFRDGTVRGPDTDWKELYRKKHIQRKEAQRMRHAMFLPSAHPIPFCPIPVYPRAYLPTSLLPPGIIGGEYDERPILPSVGDPVTSLIPRPGELPGQFRPLRPRFDPVDPLPGPHSLLPGRAIPNNRFPFRPGRGRSADSRLPFL
[1]
  binding: binds
[2]
  binding: binds

B2: FLAG-tagged FBXO7 deletion mutant lacking the C-terminal region spanning amino acids 376-522 (domain or fragment, UniProt Q9Y3I1 1-375)
chain: MRLRVRLLKRTWPLEVPETEPTLGHLRSHLRQSLLCTWGYSSNTRFTITLNYKDPLTGDEETLASYGIVSGDLICLILQDDIPAPNIPSSTDSEHSSLQNNEQPSLATSSNQTSMQDEQPSDSFQGQAAQSGVWNDDSMLGPSQNFEAESIQDNAHMAEGTGFYPSEPMLCSESVEGQVPHSLETLYQSADCSDANDALIVLIHLLMLESGYIPQGTEAKALSMPEKWKLSGVYKLQYMHPLCEGSSATLTCVPLGNLIVVNATLKINNEIRSVKRLQLLPESFICKEKLGENVANIYKDLQKLSRLFKDQLVYPLLAFTRQALNLPDVFGLVVLPLELKLRIFRLLDVRSVLSLSAVCRDLFTASNDPLLWRFL
[3]
  binding: binds

B3: FLAG-tagged FBXO7 deletion mutant lacking the N-terminal region of amino acid 1-333 (domain or fragment, UniProt Q9Y3I1 334-522)
chain: VLPLELKLRIFRLLDVRSVLSLSAVCRDLFTASNDPLLWRFLYLRDFRDNTVRVQDTDWKELYRKRHIQRKESPKGRFVMLLPSSTHTIPFYPNPLHPRPFPSSRLPPGIIGGEYDQRPTLPYVGDPISSLIPGPGETPSQFPPLRPRFDPVGPLPGPNPILPGRGGPNDRFPFRPSRGRPTDGRLSFM
[3]
  binding: no binding

B4: HA-caspase 10-C401A (enzyme, UniProt Q92851 1-521)
chain: MKSQGQHWYSSSDKNCKVSFREKLLIIDSNLGVQDVENLKFLCIGLVPNKKLEKSSSASDVFEHLLAEDLLSEEDPFFLAELLYIIRQKKLLQHLNCTKEEVERLLPTRQRVSLFRNLLYELSEGIDSENLKDMIFLLKDSLPKTEMTSLSFLAFLEKQGKIDEDNLTCLEDLCKTVVPKLLRNIEKYKREKAIQIVTPPVDKEAESYQGEEELVSQTDVKTFLEALPQESWQNKHAGSNGNRATNGAPSLVSRGMQGASANTLNSETSTKRAAVYRMNRNHRGLCVIVNNHSFTSLKDRQGTHKDAEILSHVFQWLGFTVHIHNNVTKVEMEMVLQKQKCNPAHADGDCFVFCILTHGRFGAVYSSDEALIPIREIMSHFTALQCPRLAEKPKLFFIQAAQGEEIQPSVSIEADALNPEQAPTSLQDSIPAEADFLLGLATVPGYVSFRHVEEGSWYIQSLCNHLKKLVPRMLKFLEKTMEIRGRKRTVWGAKQISATSLPTAISAQTPRPPMRRWSSVS
[4]
  binding: no binding
